Results taken from article PMC9308819 (Nature Communications, 2022).
Numbering of substitutions follows the chain as printed. Results are given in words; binding and its absence hold for the method and conditions named.

Experiments:
Assay in all cases: ITC; 500/600 µM GppNHp/GTP Rab titrated into 50/60 µM Rep15; 20 mM Hepes 8.0, 50 mM NaCl, 1 mM MgCl2, 1 mM TCEP; one-site-binding model; both purified
Rep15 Q107A (human) = molecular target: T1, Rep15 Q107A (human) (UniProt Q6BDI9)
T1 sequence: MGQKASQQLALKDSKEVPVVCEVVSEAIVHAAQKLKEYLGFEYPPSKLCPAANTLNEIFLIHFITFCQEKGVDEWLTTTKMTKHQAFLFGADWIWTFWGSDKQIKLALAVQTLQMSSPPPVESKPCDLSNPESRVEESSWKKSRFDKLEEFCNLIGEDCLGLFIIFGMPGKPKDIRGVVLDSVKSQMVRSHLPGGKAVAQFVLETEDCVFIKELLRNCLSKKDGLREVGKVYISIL

[1] = molecular target: T2, Rep15 L154A_I155A (human) (UniProt Q6BDI9)
T2 sequence: T1 sequence with A107Q, L154A, I155A

Rep15 H84A_Q85A (human) = molecular target: T3, Rep15 H84A_Q85A (human) (UniProt Q6BDI9)
T3 sequence: T1 sequence with H84A, Q85A, A107Q

B1: Rab3A, purified, nucleotide-loaded (natural protein, human, UniProt P20336 1-220, looked up)
chain: MASATDSRYGQKESSDQNFDYMFKILIIGNSSVGKTSFLFRYADDSFTPAFVSTVGIDFKVKTIYRNDKRIKLQIWDTAGQERYRTITTAYYRGAMGFILMYDITNEESFNAVQDWSTQIKTYSWDNAQVLLVGNKCDMEDERVVSSERGRQLADHLGFEFFEASAKDNINVKQTFERLVDVICEKMSESLDTADPAVTGAKQGPQLSDQQVPPHQDCAC
notes: Rab3A, human; Loaded with GppNHp (aSEC, ITC) or mant-GppNHp (stopped flow); also called Rab3A_(GppNHp); Rab3A_(mantGppNHp); source: E. coli BL21 Codon-Plus (DE3)-RIL, purified (Ni Sepharose, TEV cleavage, gel filtration)
In the case of B1, the binding (Rep15 Q107A (human)) is reported as “no binding (tested: 500 µM Rab titrated into 50 µM Rep15)”, the binding [1] is reported as “no binding (tested: 500 µM Rab titrated into 50 µM Rep15)” and the binding (Rep15 H84A_Q85A (human)) is reported as “no binding (tested: 500 µM Rab titrated into 50 µM Rep15)”.
